# Data published in PubChem BioAssay (NCATS).
# The inconclusive results got no clear call from the source; some entries with a clear call stand among them for comparison. For some assays here: Potencies of inconclusive entries are left out as doubtful fits. Active and inactive are the calls of the source. Calls follow the shape of the dose curve; as a rule, active = well fitted curve in the direction sought with a large enough effect; inconclusive = small, poorly fitted or top-dose-only effect, or another doubt; inactive = no such curve, though single readings can be large; an effect the other way counts as inactive or inconclusive.
# Tests used:
# [1] = target: Aldehyde dehydrogenase, mitochondrial (Homo sapiens) (UniProt P05091); experiment: qHTS for Inhibitors of the Aldehyde Dehydrogenase Family (ALDH2) Primary screen (AID 2061308); also: nearly all actives have a fitted effect of over 55% in size; also: potency is read from the fitted curve at half-maximal effect;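 as to activity change, negative = inhibition: plate controls were vehicle for no effect and reference inhibitor for full effect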
# [2] = target: Retinaldehyde dehydrogenase 3 (Homo sapiens) (UniProt P47895); experiment: qHTS for Inhibitors of the Aldehyde Dehydrogenase Family (ALDH1A3) Validation screen (AID 2061312); conditions: ALDH1A3 enzyme inhibition qHTS validation, fluorescence; activity change, negative = inhibition: at 84.7 µM (top of the series); also: nearly all actives have a fitted effect of over 45% in size; also: potency is read from the fitted curve at half-maximal effect; as to activity change, negative = inhibition: % is scaled to controls: 0 for no effect and ±100 for the full control effect
# [3] = target: Retinaldehyde dehydrogenase 3 (Homo sapiens) (UniProt P47895); experiment: qHTS for Inhibitors of the Aldehyde Dehydrogenase Family (ALDH1A3) Confirmatory screens (AID 2061311); conditions: activity change, negative = inhibition: at 46 µM (top of the series); also: nearly all actives have a fitted effect of over 60% in size
# [4] = target: Retinal dehydrogenase 2 (Homo sapiens) (UniProt O94788); experiment: qHTS for Inhibitors of the Aldehyde Dehydrogenase Family (ALDH1A2) Confirmation screens (AID 2061314); conditions: activity, negative = inhibition: at 45.9 µM (top of the series) unless noted; also: nearly all actives have a fitted effect of over 65% in size; also: potency is read from the fitted curve at half-maximal effect; as to activity, negative = inhibition: % is scaled to controls: 0 for no effect and ±100 for the full control effect
# [5] = target: Aldehyde dehydrogenase 1A1 (Homo sapiens) (UniProt P00352); experiment: qHTS for Inhibitors of the Aldehyde Dehydrogenase Family (ALDH1A1) Confirmatory screens (AID 2061316); conditions: activity change, negative = inhibition: at 47.3 µM (top of the series); also: nearly all actives have a fitted effect of over 65% in size; also: potency is read from the fitted curve at half-maximal effect
# [6] = target: Retinaldehyde dehydrogenase 3 (Homo sapiens) (UniProt P47895); experiment: qHTS for Inhibitors of the Aldehyde Dehydrogenase Family (ALDH1A3) Primary screen (AID 2061315); conditions: ALDH inhibition qHTS; activity change, negative = inhibition: at 56 µM (top of the series) unless noted; also: potency is read from the fitted curve at half-maximal effect;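 as to activity change, negative = inhibition: plate controls were DMSO vehicle for no effect and reference inhibitor for full effect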
# [7] = BET inhibitor-based combinations targeting novel dependencies in MECOM-rearranged (r) AML: SET-2 cell line (AID 2202231); conditions: SET-2 AML cells viability, CellTiter-Glo luminescence, 48 h; viability: stronger effect = lower value, concentration not given here;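 also: plate controls were DMSO treated cells for no effect and wells without cells for full effect; nearly all actives have a fitted effect of over 35% in size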
# Summary of the method: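 AML cell lines seeded at 500 cells/well, treated with 11-point dose curves for 48 h. Viability by CellTiter-Glo luminescence, normalised to DMSO and empty wells; activity expressed as AUC and per-cell-line Z-transformed AUC.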
# Tags tell the direction and shape of the fitted curve.
structure (smiles),measurement,setting,value
CC(=O)Oc1cc2c(s1)CCN([C@H](C(=O)C1CC1)c1ccccc1F)C2,Potency,[1],"inconclusive [inhibitor, partial curve]"
same,Potency,[2],"inconclusive [inhibitor, full curve]"
CN1C(CCl)Nc2cc(Cl)c(S(N)(=O)=O)cc2S1(=O)=O (centres undefined),Potency,[1],"inconclusive [inhibitor, single point]"
same,Potency,[2],"inconclusive [inhibitor, full curve, poor fit]"
CCC(C(C)O)n1ncn(-c2ccc(N3CCN(c4ccc(OCC5COC(Cn6cncn6)(c6ccc(F)cc6F)C5)cc4)CC3)cc2)c1=O (centres undefined),Potency,[1],inactive
same,Potency,[2],inactive
COCCCNCC1COc2ccccc2O1 (centres undefined),Potency,[1],"inconclusive [inhibitor, single point]"
same,Potency,[2],"inconclusive [inhibitor, full curve]"
CC(=O)c1ccc2c(c1)C(O)C(C(C)(C)O)O2 (centres undefined),Potency,[1],inactive
O=[S+]([O-])(NCc1nccs1)c1ccc(Nc2nc(-c3ccccc3)cs2)cc1,Potency,[1],inactive
same,Potency,[3],inactive
same,Potency,[4],inactive
same,Potency,[5],"inconclusive [inhibitor, partial curve, poor fit]"
O=C(Nc1ccc(-c2ccc(Cl)c(Cl)c2)cc1)C1=C(O)c2ccccc2S(=O)(=O)N1,Potency,[1],"inconclusive [inhibitor, partial curve]"
same,Potency,[2],"inconclusive [inhibitor, partial curve, poor fit]"
CCCNCCc1ccc(NS(=O)(=O)c2ccc(OC(F)(F)F)cc2)cc1,Potency,[1],"inconclusive [inhibitor, single point]"
same,Potency,[2],"inconclusive [inhibitor, full curve]"
O=C(O)[C@H](Cc1ccc(Nc2nccc3ccncc23)cc1)NC1=C(Br)C(=O)C12CCCCC2,Potency,[1],"inconclusive [inhibitor, single point]"
same,Potency,[2],"inconclusive [inhibitor, full curve]"
CNCc1cc(-c2ccccc2F)n(S(=O)(=O)c2cccnc2)c1,Potency,[1],inactive
same,Potency,[6],"inconclusive [inhibitor, partial curve, poor fit]"
NC[C@H](O)c1ccc(O)c(O)c1,Potency,[1],"inconclusive [inhibitor, single point]"
same,Potency,[2],"inconclusive [inhibitor, partial curve]"
same,viability,[7],inactive: 116%
COc1cc(C(C)C)c(Oc2cnc(N)nc2N)cc1I,Potency,[1],"inconclusive [inhibitor, single point]"
same,Potency,[6],"inconclusive [inhibitor, single point]"
C=CCC1=C[C@]2(OC)[C@H](C)[C@@H](c3ccc(OC)c(OC)c3)O[C@]2(OC)CC1=O,Potency,[1],inactive
same,Potency,[6],"inconclusive [inhibitor, partial curve, poor fit]"
Oc1ccc(CNc2ccccc2Cl)c2cccnc12,Potency,[1],"inconclusive [inhibitor, partial curve, poor fit]"
same,Potency,[6],"inconclusive [inhibitor, single point]"
COc1ccnc(CCc2nc3ncccc3[nH]2)c1,Potency,[1],"inconclusive [inhibitor, partial curve, poor fit]"
same,Potency,[2],"inconclusive [inhibitor, partial curve, poor fit]"
same,Potency,[5],inactive
CC(=O)c1cccc(NC(=O)c2cnn3c(C)cc(C)nc23)c1,Potency,[1],inactive
same,Potency,[6],inactive
CC(O)C1C(=O)N2C(C(=O)O)=C(SC3CNC(C(=O)N(C)C)C3)C(C)C12 (centres undefined),Potency,[1],"inconclusive [inhibitor, partial curve, poor fit]"
same,Potency,[2],"inconclusive [inhibitor, full curve, poor fit]"
Cc1cc(-c2nnc3n2CCCCC3)c(C)n1-c1ccccn1,Potency,[1],"inconclusive [inhibitor, single point]"
same,Potency,[4],"inconclusive [inhibitor, partial curve, poor fit]"
same,Potency,[5],"inconclusive [inhibitor, partial curve]"
FC(F)(F)c1ccccc1-c1nc(NCc2ccc(-c3cccnc3)cc2)c2sccc2n1,Potency,[1],inactive
same,Potency,[6],"inconclusive [inhibitor, full curve, poor fit]"
COC(=O)CC1OC(C)C2=C(O)c3c(O)cccc3C(=O)C23OC13 (centres undefined),Potency,[1],"inconclusive [inhibitor, single point]"
same,Potency,[6],active: 1.58 µM
